Reference: PubChem BioAssay AID504332 (National Center for Advancing Translational Sciences (NCATS), 2011)
Several values for one entry are separate records, joined by “and”; a condition that tells them apart may be missing. Identical values can stand only once. Screen size: about 350,000 compounds; about 31,000 (8.9%) were called active. Inconclusive means that the source gave no clear call. Such entries were picked first, then a sample of the others. Calls follow the shape of the dose curve; as a rule, active = well fitted inhibition curve with a large enough effect; inconclusive = small, poorly fitted or top-dose-only effect; inactive = no such curve, though single readings can be large or run the other way. Potencies beside an inconclusive call are fits to weak or partial responses and may not hold up.

Each compound was assayed against Histone-lysine N-methyltransferase EHMT2 (Homo sapiens) (UniProt Q96KQ7) (assay: qHTS Assay for Inhibitors of Histone Lysine Methyltransferase G9a). Details: G9a H3K9 monomethylation, AlphaScreen, 2 h; activity, negative = inhibition: at 59 µM (top of the series) unless noted.
How it was run: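 AlphaScreen detection with an anti-monomethyl H3K9 antibody quantified product after a 2 h room-temperature reaction containing 500 nM biotinylated H3K9 peptide, 20 µM SAM and 20 nM enzyme, which had been preincubated 15 min with compound.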
% is scaled to controls: 0 for no effect and ±100 for the full control effect; potency is read from the fitted curve at half-maximal effect; tags tell the direction and shape of the fitted curve.
Also: nearly all actives have a fitted effect of over 75% in size.

Chain of UniProt Q96KQ7 (Q96KQ7 whole entry, looked up): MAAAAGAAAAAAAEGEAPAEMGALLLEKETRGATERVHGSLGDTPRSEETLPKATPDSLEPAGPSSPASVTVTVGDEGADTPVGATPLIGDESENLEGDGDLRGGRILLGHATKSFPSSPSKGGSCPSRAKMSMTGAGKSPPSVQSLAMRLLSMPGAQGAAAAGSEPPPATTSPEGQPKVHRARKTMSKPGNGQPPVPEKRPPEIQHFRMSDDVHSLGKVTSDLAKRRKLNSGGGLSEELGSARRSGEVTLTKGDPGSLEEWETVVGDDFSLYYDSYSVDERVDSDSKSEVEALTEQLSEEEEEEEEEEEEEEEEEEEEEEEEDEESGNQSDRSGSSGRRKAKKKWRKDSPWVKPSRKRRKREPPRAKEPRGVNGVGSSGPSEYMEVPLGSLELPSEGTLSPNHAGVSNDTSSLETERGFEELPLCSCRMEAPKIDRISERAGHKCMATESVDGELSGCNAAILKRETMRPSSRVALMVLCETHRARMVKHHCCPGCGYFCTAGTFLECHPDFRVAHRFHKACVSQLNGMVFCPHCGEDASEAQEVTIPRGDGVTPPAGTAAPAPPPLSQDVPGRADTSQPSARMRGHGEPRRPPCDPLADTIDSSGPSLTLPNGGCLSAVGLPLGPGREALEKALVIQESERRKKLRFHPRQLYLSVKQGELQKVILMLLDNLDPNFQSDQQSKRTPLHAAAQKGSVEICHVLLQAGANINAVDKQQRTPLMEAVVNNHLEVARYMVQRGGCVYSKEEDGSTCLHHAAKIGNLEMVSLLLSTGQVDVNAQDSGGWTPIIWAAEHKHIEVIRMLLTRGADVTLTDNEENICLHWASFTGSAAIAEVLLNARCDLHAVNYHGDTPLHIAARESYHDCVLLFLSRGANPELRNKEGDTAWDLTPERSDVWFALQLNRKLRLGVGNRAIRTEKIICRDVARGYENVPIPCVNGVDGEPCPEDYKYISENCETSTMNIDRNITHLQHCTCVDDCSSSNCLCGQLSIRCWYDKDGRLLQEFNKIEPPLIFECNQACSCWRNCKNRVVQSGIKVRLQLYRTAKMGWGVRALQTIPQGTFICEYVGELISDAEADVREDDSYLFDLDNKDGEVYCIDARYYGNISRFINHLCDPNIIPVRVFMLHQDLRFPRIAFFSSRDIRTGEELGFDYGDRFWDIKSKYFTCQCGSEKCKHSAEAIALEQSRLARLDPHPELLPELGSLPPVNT

Structure (SMILES)	Potency	activity, negative = inhibition
CCN1CCCC1CNCc1ccc(OCc2ccc(Cl)nc2)c(OC)c1 (stereo not given)	inconclusive: 39.8 µM [inhibitor, single point]	
COc1cc(OC)cc(C(=O)NNC(=S)Nc2ccc(S(N)(=O)=O)cc2)c1		inactive: -19.7%
O=C(c1ccco1)n1c(=S)nc2ccccn21	inconclusive: 8.91 µM [inhibitor, single point]	
Cc1cc(C)c(NC(=O)CN2C(=O)NC3(CCCCC3)C2=O)c(Cl)c1	inconclusive: 50.1 µM [inhibitor, partial curve]	
Cc1ccc(NC(=O)Cc2nnc(SCC(=O)NC3=NCCS3)n2C)cc1	inconclusive: 89.1 µM [inhibitor, single point]	
COc1ccc(N(CC(=O)Nc2ccc3c(c2)OCO3)S(=O)(=O)c2ccc(F)cc2)cc1	inconclusive: 28.2 µM [inhibitor, partial curve, poor fit]	
CC(C)c1ccc(S(=O)(=O)N2CCN(Cc3cccc(F)c3)CC2)cc1	inconclusive: 14.1 µM [inhibitor, partial curve]	
O=C(NNc1cc(Cl)cc(Cl)c1)c1cccs1	active: 28.2 µM	
S=c1[nH]nc(-c2ccncc2)n1/N=C/C=C/c1ccccc1	inconclusive: 1.58 µM [inhibitor, full curve, poor fit]	
Cc1ccc(/C=C/C(=O)Nc2ccncc2)o1	inconclusive: 7.08 µM [inhibitor, full curve, poor fit]	
O=C(NCc1ccccc1CN1CCCC1)c1ccc(Cl)c(S(=O)(=O)N2CCCC2)c1	inconclusive: 56.2 µM [inhibitor, partial curve, poor fit]	
CCn1cc(/C=C(\NC(=O)c2ccc(OC)c(OC)c2)C(=O)N2CCOCC2)c2ccccc21	inconclusive: 50.1 µM [inhibitor, partial curve, poor fit]	
COc1cc(CNn2c(C)n[nH]c2=S)cc(Br)c1OCC(=O)NC(C)(C)C	active: 3.98 µM	
COc1ccc(C)cc1NC(=O)CN1CCN(S(=O)(=O)c2ccc3ccccc3c2)CC1		inactive: -40.5% [at 2.33 µM]
COc1cccc(-c2c(C#N)c(N)nc3c2c(C)nn3-c2ccccc2)c1O		inactive: 5.9% [at 102 µM]
Cc1noc(C(=O)NCc2ccccc2)c1Cl	inconclusive: 89.1 µM [inhibitor, single point]	
CCOC(=O)c1ccc(NC(=S)N2CCN(CCNC3=CC(=O)CC(C)(C)C3)CC2)cc1	inconclusive: 100 µM [inhibitor, single point]	
O=C(CN1C(=O)C2CCc3[nH]c4ccccc4c3C2C1=O)N1CCCC1 (stereo not given)	inconclusive: 50.1 µM [inhibitor, partial curve]	
CCN(CC(=O)NCc1cccs1)C(=O)c1ccc(NS(=O)(=O)c2cccc([N+](=O)[O-])c2)cc1	inconclusive: 89.1 µM [inhibitor, single point]	
COc1ccc(NCC(=O)N/N=C/C(C)c2ccccc2)cc1 (stereo not given)	active: 28.2 µM	
COc1ccc(CNC(=O)c2csc3c2CCCC3)cc1	inconclusive: 8.91 µM [inhibitor, single point]	
O=[N+]([O-])c1cc(-c2cnc3ccccc3n2)ccc1Oc1ccc(F)cc1	inconclusive: 56.2 µM [inhibitor, single point]	
O=c1c(-c2ccccc2)c(-c2ccccc2)oc2cc(O)cc(O)c12		inactive: 41% [at 0.501 µM]

Structure (SMILES)	Potency	activity, negative = inhibition
CN(NC(=O)NN)c1ncc(C(F)(F)F)cc1Cl		inactive: 27.7% [at 102 µM]
CCOc1ccc(C(O)Cc2nc3ccccc3n2C)cc1 (stereo not given)		inactive: -10.2%
CCCS(=O)(=O)c1c(S(=O)(=O)CCC)c2cnccn2c1C(=O)c1ccc(F)cc1		inactive: 5.9% [at 102 µM]
CNCc1c(OCc2ccccc2)ccc2ccccc12	inconclusive: 89.1 µM [inhibitor, single point]	
O=C(NCC(c1ccco1)N1CCN(c2ccccc2F)CC1)OCc1ccccc1 (stereo not given)	inconclusive: 70.8 µM [inhibitor, partial curve, poor fit]	
CCc1ccc(Nc2nnc(SCc3cc(=O)n4ccsc4n3)s2)cc1	active: 2 µM	
Oc1ccc(N=Nc2nccs2)c(O)c1	active: 44.7 µM	
CC(=O)Nc1ccc(NC(=O)COC(=O)c2ccccc2C(=O)c2ccccc2)cc1	inconclusive: 8.91 µM [inhibitor, single point]	
CCOC(=O)C1CCC(CN(Cc2ccc(Cl)cc2)S(=O)(=O)c2cccc(Cl)c2C)CC1 (stereo not given)		inactive: 22.1%
Cc1cc(C)c(C(=O)COC(=O)CCn2c(C)csc2=O)cc1C	inconclusive: 39.8 µM [inhibitor, partial curve]	
CCCCOc1ccc(C(=O)Nc2ccc3c(c2)CCCN3C(=O)c2cccs2)cc1		inactive: 13.1%
O=C(CSc1nc2ccccc2[nH]1)Nc1ccccc1F		inactive: -20.8%
CC(C)(C)c1ccc(C(=O)CCCSC2=C(C#N)C(c3ccco3)C3=C(CCCC3=O)N2)cc1 (stereo not given)	inconclusive: 1.12 µM [inhibitor, full curve, poor fit]	
O=C(COC(=O)c1ccccc1Br)Nc1ccc(F)cc1		inactive: -27.7% [at 102 µM]
COc1ccc(S(=O)(=O)Nc2cc3[nH]c(=O)oc3cc2C)cc1	inconclusive: 56.2 µM [inhibitor, single point]	
O=C(CSc1ncc(-c2ccccc2)[nH]1)Nc1ccccc1	inconclusive: 31.6 µM [inhibitor, single point] and inconclusive: 39.8 µM [inhibitor, single point]	
CN(C)S(=O)(=O)c1cccc(NC(=O)COC(=O)c2c[nH]c(=O)[nH]c2=O)c1	inconclusive: 89.1 µM [inhibitor, partial curve, poor fit]	
Cc1cccn2c(=O)nc(SCC(=O)NCc3ccc4c(c3)OCO4)nc12	inconclusive: 89.1 µM [inhibitor, single point]	
CC(C)N(Cc1ccccc1)C(=O)c1nc(-c2ccc(Cl)cc2)n2c1CCCCC2	inconclusive: 22.4 µM [inhibitor, partial curve, poor fit]	
Cc1ccc(S(=O)(=O)NCCNC(=O)C2CCCNC2=O)cc1 (stereo not given)	inconclusive: 3.55 µM [inhibitor, partial curve, poor fit]	
O=C(O)CN(CC(=O)O)Cc1cc2c(-c3ccccc3C(=O)O)c3cc(CN(CC(=O)O)CC(=O)O)c(=O)cc-3oc2cc1O		inconclusive: -60.5% [inhibitor] [at 2.33 µM]
COc1ccc(OC)c(CN2CCC(C(=O)N3CCOCC3)CC2)c1	active: 10 µM	
Cc1ccc(C)c(OCCCCN2CCNCC2)c1C	inconclusive: 70.8 µM [inhibitor, partial curve]	

Structure (SMILES)	Potency	activity, negative = inhibition
CN1CCN(CCC(=O)N2c3ccccc3Sc3ccc(C(F)(F)F)cc32)CC1	inconclusive: 39.8 µM [inhibitor, full curve, poor fit]	inconclusive: -66.5% [inhibitor] [at 2.33 µM]
CCc1ccccc1N1C(=O)c2cccc3c(N4CCOCC4)c([N+](=O)[O-])cc(c23)C1=O	active: 15.8 µM	
O=C1CC(NCC2CCCO2)C(=O)N1c1ccc(F)cc1 (stereo not given)	active: 50.1 µM	
CCC(=O)NC(=S)Nc1ccc(NC(=O)c2ccco2)c(OC)c1	inconclusive: 39.8 µM [inhibitor, single point]	
CCOc1ccc(-n2c(C)cc(/C=C3/C(=N)N4C(=NC3=O)SN=C4S(C)(=O)=O)c2C)cc1	active: 28.2 µM	
CCOC(=O)c1sc(N)nc1C(C)C	inconclusive: 10 µM [inhibitor, partial curve, poor fit]	
Cc1ccc(C2=NNC(C(O)C(O)C(O)C(C)O)S2)cc1 (stereo not given)	inconclusive: 39.8 µM [inhibitor, single point]	
CN(C)S(=O)(=O)c1ccc(NC(=O)N2CCN(c3ccccc3)CC2)cc1	inconclusive: 39.8 µM [inhibitor, partial curve, poor fit]	
O=C1c2oc3ccccc3c(=O)c2C(c2cccnc2)N1Cc1ccco1 (stereo not given)	active: 25.1 µM	
Cc1cccc2cc(=O)[nH]c(C)c12		inconclusive: -78.3% [inhibitor]
COc1ccccc1-n1cnnc1SCC(=O)N1CCN(C(=O)c2ccco2)CC1	inconclusive: 79.4 µM [inhibitor, single point]	
O=[N+]([O-])c1ccc(S(=O)(=O)NCCc2ccncc2)cc1	inconclusive: 44.7 µM [inhibitor, partial curve, poor fit]	
O=C(CCCN1C(=O)/C(=C/c2cccc(Br)c2)SC1=S)N1CCOCC1	inconclusive: 100 µM [inhibitor, single point]	
CN(C)S(=O)(=O)c1ccc2nnn(O)c2c1		inactive: -48.9% [at 102 µM]
CC(C)c1ccc(N(CC(=O)NC2CCCC2)C(=O)CCC(=O)Nc2nccs2)cc1		inactive: -6.2% [at 102 µM]
N#C/C(=C\c1cccc(O)c1)c1nc2ccccc2o1		inactive: -26.2% [at 102 µM]
CC1c2cc3c(cc2CCN1CC(=O)Nc1ccc(S(=O)(=O)N2CCCC2)cc1)OCCCO3 (stereo not given)	active: 70.8 µM	
CC1CN(C(=O)C(C)Sc2nc3ccccc3s2)CC(C)O1 (stereo not given)		inactive: -6.84%
O=C(CSc1ccccc1C(=O)NCCCN1CCCC1=O)NCc1ccco1	inconclusive: 3.55 µM [inhibitor, single point]	
COc1ccc([N+](=O)[O-])cc1NC(=O)CSc1ccccc1		inactive: -1.39% [at 102 µM]
CCOc1ccc(NC(=O)C2CC(=O)N3CCCN=C3S2)cc1 (stereo not given)	inconclusive: 31.6 µM [inhibitor, single point]	
O=C1/C(=C\c2ccccn2)SC(=S)N1Nc1ncc(C(F)(F)F)cc1Cl	active: 10 µM	
C=CCSc1nc2c(cnn2-c2ccccc2)c(=O)n1N	inconclusive: 0.794 µM [inhibitor, full curve, poor fit]	
